Some of the results follow. Many values rest on one well or one pass, so single values are uncertain.
Columns and labels:
Assay in all cases: cell count relative to DMSO control; melanoma cells; higher = more viable cells
Settings in all cases: library dose: standard library concentration; 72 h
501Mel = system: 501Mel
A101D = system: A101D
A2058 = system: A2058
A375 = system: A375
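Note: cells treated in 1,536-well plates, then fixed and DAPI-stained, with nuclei counted from automated high-throughput microscope images.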

Cn1c(Nc2ccc(C(F)(F)F)cc2)nc2cc(Oc3ccnc(-c4ncc(C(F)(F)F)[nH]4)c3)ccc21 + CCc1ccc(CCOc2ccc(CC3SC(=O)NC3=O)cc2)nc1 [pioglitazone] (first compound 0.4 µM, partner dose 10 µM)
cell count (501Mel): 42.6% | cell count (A101D): 57.7% | cell count (A2058): 82.6% | cell count (A375): 104%

Clc1ccc(Nc2nnc(Cc3ccncc3)c3ccccc23)cc1 [vatalanib] + COc1ccc(COc2ccc(Cc3cnc(N)nc3N)cc2OC)cc1 [GW2580] (first compound 10 µM, partner dose 5 µM)
cell count (501Mel): 53.1% | cell count (A101D): 78.7% | cell count (A2058): 79.3% | cell count (A375): 99.5%

Nc1cccc2c1CN(C1CCC(=O)NC1=O)C2=O (stereo not drawn) [lenalidomide] + OCCn1cc(-c2cnc3nnn(Cc4ccc5ncccc5c4)c3n2)cn1 [PF04217903] (first compound 5 µM, partner dose 5 µM)
cell count (A101D): 94.8% | cell count (A2058): 117% | cell count (A375): 112%

Clc1ccc(Nc2nnc(Cc3ccncc3)c3ccccc23)cc1 [vatalanib] + CN(C)S(=O)(=O)c1ccc2c(c1)/C(=C/c1cc3c([nH]1)CCCC3)C(=O)N2 [SU6656] (first compound 10 µM, partner dose 2 µM)
cell count (A101D): 57.6% | cell count (A2058): 53.1% | cell count (A375): 104%

C#Cc1cccc(Nc2ncnc3cc(OCCOC)c(OCCOC)cc23)c1 [erlotinib] + COc1cc2ncnc(Nc3ccc(Oc4ccccc4)cc3)c2cc1OC [SrcI1] (first compound 4 µM, partner dose 10 µM)
cell count (501Mel): 45.5% | cell count (A101D): 58.7% | cell count (A2058): 76.3% | cell count (A375): 97%

From the supplement of paper PMC4604168 (melanoma cell lines)
